Paper PMC12040169 (PLOS Biology, 2025)
The other results are listed elsewhere or left out.

Each compound was assayed on T1, C. trachomatis L2/434/Bu expressing GFP (CTL2-GFP). Details: total inclusion area; 28.5 h, 10 µM; inhibitor.
T1 construct: L2/434/Bu GFP intracellular growth in HeLa cells
Parameters: species or system HeLa; C. trachomatis total inclusion area by high-content imaging, normalised to DMSO
In short: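 Bulk GFP and resorufin signals were read first. Wells were then fixed, stained with Hoechst and imaged to detect GFP inclusions and host nuclei. MICs followed the previously described calculation.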

| Compound | % of control remaining |
| --- | --- |
| O=C(c1ccccc1F)N1CCCC(c2cc3ncccc3cn2)C1 (centres unmarked) [CBK284710] | 107.602 |
| CCOC(=O)NC(=S)NCCCn1ccnc1 [CBK018272] | 52.9011 |
| O=C(c1ccco1)N1CCN(c2cncc(-c3ccc(F)cc3F)n2)CC1 [CBK065818] | 89.6434 |
| Cc1ccc(C(=O)N2CCN(Cc3cc(=O)n4ccsc4n3)CC2)cc1 [CBK305057] | 53.096 |
| CCNC(=O)Nc1cc2ccccc2c(-c2cccnc2)n1 [CBK073787] | 98.1361 |
| CCCc1nc(C(=O)N2Cc3cnn(Cc4ccc(F)cc4)c3C2)cs1 [CBK307249] | 88.9968 |
| CCCc1ccc(S(=O)(=O)Nc2c(C(=O)OC)sc3ncccc23)cc1 [CBK050653] | 101.838 |
| Cc1cc(Cl)ccc1CNC(=O)/C=C/c1ccc(C(C)C)cc1 [CBK149615] | 104.495 |
| COc1ccc(-c2nn(-c3ccccc3)cc2/C=C2\SC(N3CCC(C(N)=O)CC3)=NC2=O)cc1 [CBK265178] | 79.2617 |
| CC(C)(C)c1n[nH]c(C2CN(C(=O)CCCn3cccn3)CCO2)n1 (centres unmarked) [CBK305198] | 21.0532 |
| Cc1cccn2c(=O)c(/C=C3\SC(=S)N(CCCC(=O)O)C3=O)c(N3CCC(C)CC3)nc12 [CBK264793] | 120.105 |
| Cc1cc(NC(=O)C(=O)NCCN2CCN(S(C)(=O)=O)CC2)ccc1Br [CBK265401] | 106.311 |
| O=C(O)COCC(=O)N1CCC2(CC1)NC(=O)Cc1c2ccc2ccccc12 [CBK047168] | 110.658 |
| COCCCn1c(=O)[nH]c2ncc(-c3cccc(NC(C)=O)c3)nc21 [CBK064433] | 88.5985 |
| COc1ccc(-c2nc3ncccc3cc2O)cc1C [CBK073700] | 101.468 |
| Cc1ccc(O)c(CN(CCCn2ccnc2)CC2CC=CCC2)c1 (centres unmarked) [CBK282829] | 92.0137 |
| C/C(=N/Nc1ccc([N+](=O)[O-])cc1[N+](=O)[O-])C1CC1 [CBK260921] | 103.267 |
| Cc1ccccc1C(NC(=O)C1CCN(C(=O)c2ccccc2)CC1)c1ccccn1 (centres unmarked) [CBK059720] | 99.8369 |
| O=S(=O)(N1CCCCC1)N1CCCN(S(=O)(=O)N2CCCCC2)CC1 [CBK268939] | 92.199 |
| CC(C)CNc1nnc(-c2ccccc2[N+](=O)[O-])s1 [CBK076755] | 102.514 |
| O=C(N[C@H]1CO[C@H]2[C@@H]1OC[C@@H]2n1nnnc1Oc1ccc(-n2ccnc2)cc1)c1ccco1 [CBK289486] | 120.469 |
| O=C(NCc1ccccc1)C1CCN(C(=O)Cc2c(F)cccc2Cl)CC1 [CBK297919] | 81.7317 |
| Cc1ccc(-c2noc(CSc3nnc(-c4ccncc4)n3-c3ccc(C)cc3)n2)cc1 [CBK268879] | 79.2179 |
| COc1ccc(C[C@@]23CCC(=O)C[C@@H]2N(C)CC3)cc1 [CBK009720] | 107.948 |
| O=C(N/N=C/c1ccc([N+](=O)[O-])cc1)c1ccccc1Cl [CBK261775] | 93.4928 |
| Cn1c(=O)c2c(nc(CN3CCCCC3)n2CCN2CCOCC2)n(C)c1=O [CBK269281] | 129.493 |
| O=C(O)CCN1CCCCC1 [CBK012168C] | 84.682 |

| Compound | % of control remaining |
| --- | --- |
| CC(C)NC(=O)NC[C@H]1C[C@@H]2CCN1C[C@@H]2c1cc(-c2ccccc2)nn1C [CBK289097] | 102.656 |
| Cc1cccn2c(=O)cc(CN3CCCC(N4CCNC4=O)C3)nc12 (centres unmarked) [CBK304947] | 98.9322 |
| Cc1cc(Cl)cc(Cl)c1S(=O)(=O)Nc1nc2c(s1)CN(C(=O)N1CCOCC1)CC2 [CBK000931] | 112.208 |
| Cc1ccc2nc(C(=O)O)cc(OCC(=O)Nc3ccccc3F)c2c1 [CBK287255] | 69.3613 |
| CC(NC(=O)N1CCSCC1)c1cccc(N2CCCC2)c1 (centres unmarked) [CBK305230] | 54.8808 |
| OC(COc1cccc2c1CCCC2)CN1CCC(O)(c2ccc(Cl)c(C(F)(F)F)c2)CC1 (centres unmarked) [CBK003581] | 43.1428 |
| COCCn1c(CO)nnc1[C@H]1C[C@@H](NC(=O)c2cc(F)ccc2F)C1 [CBK307032] | 29.2846 |
| CCOC(=O)c1cnc2ccc(Br)cc2c1NCc1cccnc1 [CBK265030] | 119.428 |
| Cc1nc(CCNCc2c(C(C)C)nn(C)c2N(C)C)cs1 [CBK304002] | 47.5368 |
| Cc1cc(C)nc(NCCC(=O)O)n1 [CBK270154] | 98.9599 |
| CN(CC(=O)C(C#N)c1ccccc1)Cc1ccccc1 (centres unmarked) [CBK269432] | 68.8058 |
| O=C(CN1CCC(c2cccc(Cc3cccc(F)c3)n2)CC1)Nc1nccs1 [CBK286090] | 83.0834 |
| CC(C)c1ccc(S(=O)(=O)NCCC(C)(C)C)cc1 [CBK043640] | 90.5474 |
| CC(C)NC(=O)CN1C(=O)N2CCCN=C2c2ccc(Cl)cc21 [CBK284390] | 86.343 |
| O=C1C2(Cc3ccccc3)CN3CN(C2)CC1(Cc1ccccc1)C3 [CBK261341] | 95.8608 |
| O=C1C[C@@H]2CCN(C(=O)COc3ccccc3)C[C@@H]2CCN1Cc1cccnc1 [CBK288793] | 105.72 |
| Cc1cnn(CC2CC2)c1NC(=O)Cc1csc(N2CCCC2=O)n1 [CBK304940] | 68.3333 |
| CCN1CCC(NCc2ccc(OCC(N)=O)cc2)CC1 [CBK306106] | 52.7706 |
| CC(CC(=O)O)n1nnc2ccccc21 (centres unmarked) [CBK264139] | 102.409 |
| O=C(Cc1ccccc1)Nc1ccc(C(=O)O)cc1NC(=O)Cc1ccccc1 [CBK287049] | 56.1677 |
| CCC(C)(C)c1nnc(NC(=O)COc2ccc(Cl)cc2Cl)s1 [CBK058435] | 36.9844 |
| COc1ccc(C(c2ccccn2)N(C)C(=O)C2CCN(S(=O)(=O)C(C)C)CC2)cc1 (centres unmarked) [CBK060280] | 94.7025 |
| COc1ccc(-c2cnc(Nc3ccc(N4CCOCC4)cc3)c3nccn23)cn1 [CBK091238] | 152.66 |
| FC(F)C(F)(F)Oc1cccc(Nc2nccn3ccnc23)c1 [CBK066284] | 81.8788 |
| Cn1cnnc1SCC(=O)N1CCc2ccccc21 [CBK287576] | 108.666 |
| O=C(CC1CCCCC1)N1CCC(n2nc(C3CC3)ccc2=O)CC1 [CBK284241] | 107.522 |
| O=C(CC(CN1CCN(Cc2cccc(Cl)c2)CC1)C(=O)O)Nc1cccc(O)c1 (centres unmarked) [CBK286811] | 96.3122 |

| Compound | % of control remaining |
| --- | --- |
| c1cnc2c(-c3cn4ccnc4c(NC4CC4)n3)cccc2c1 [CBK037911] | 84.99 |
| O=C(CSCc1ccc(Br)cc1)NCC1CCCO1 (centres unmarked) [CBK268506] | 129.401 |
| CC(C)NC(=O)CCn1c(-c2ccncc2)cc2cccnc21 [CBK284931] | 97.7414 |
| O=C(Nc1ccc(C(=O)Nc2cccc(-c3nc4ccccc4o3)c2)cc1)c1ccc([N+](=O)[O-])cc1 [CBK262606] | 111.539 |
| COC(=O)c1c(NC(=S)NCc2ccccn2)sc(C(=O)N(C)C)c1C [CBK267055] | 117.19 |
| c1nc(NCCN2CCOCC2)c2c3c(sc2n1)CCCCC3 [CBK268418] | 84.542 |
| COc1ncccc1C(=O)Nc1ccc(C)nc1C [CBK200292] | 90.3542 |
| COc1ccc(S(=O)(=O)Nc2cccc(C(=O)N3CCOCC3)c2)cc1OC [CBK039010] | 78.6919 |
| CC(NC(=O)CCC(=O)O)C12CC3CC(CC(C3)C1)C2 (centres unmarked) [CBK287105] | 99.824 |
| Cn1cc(C2C[S+]([O-])CCN2Cc2csc3ccccc23)cn1 (centres unmarked) [CBK304085] | 44.0749 |
| c1ccc2c(c1)OCC(c1nn3cnnc3s1)O2 (centres unmarked) [CBK269277] | 77.199 |
| COc1ccc(NC(=O)CCC(=O)N2CCC(C(=O)O)CC2)cc1 [CBK286588] | 37.6799 |
| CCCOC1CCCN(Cc2c(C)n(CC(N)=O)c3ccccc23)C1 (centres unmarked) [CBK282797] | 108.943 |
| COc1ccc(NC(=O)NS(=O)(=O)c2sc3ccc(Cl)cc3c2C)cc1OC [CBK156300] | 104.544 |
| COc1ccc(CCNC(=O)c2cnc3sc(C)cn3c2=O)cc1OC [CBK287709] | 80.0925 |
| O=C1N/C(=N/N=C\c2cccc([N+](=O)[O-])c2)SC1Cc1ccc(Br)cc1 (centres unmarked) [CBK263125] | 97.3414 |
| O=C1CC(N2CCN(c3ccccn3)CC2)C(=O)N1CCc1ccccc1 (centres unmarked) [CBK262282] | 93.1981 |
| FC(F)(F)c1cc(-c2cc(N3CCC(N4CCCCC4)CC3)ncn2)cc(C(F)(F)F)c1 [CBK037692] | 76.3721 |
| CCNC(=O)C1CCCN(Cc2ncc(C)c(OC)c2C)C1 (centres unmarked) [CBK305081] | 33.9406 |
| NNC(=O)CSc1nnc(-c2ccccc2)n1-c1ccccc1 [CBK223486] | 107.482 |
| O=C(CSc1nnc(-c2ccncc2)n1-c1ccc(Cl)cc1)Nc1ccccc1-c1ccccc1 [CBK266205] | 98.477 |
| CCCCCn1c(=O)c(-c2nc3ccccc3c(=O)[nH]2)c(O)c2ccccc21 [CBK291215] | 94.3442 |
| CCOC(=O)c1cnc2ccccc2c1NCCN1CCOCC1 [CBK304328] | 117.346 |
| FC(F)(F)Oc1ccccc1-c1nnc(NC2CCCCCC2)s1 [CBK074041] | 114.23 |
| CN1CCC2(CC1)CN(C(=O)C1CC1)Cc1ccccc1O2 [CBK284967] | 85.817 |
| O=[N+]([O-])c1cc(-c2nc(-c3ccco3)c(-c3ccco3)[nH]2)ccc1Br [CBK019778] | 106.085 |
